Laboratory results published in PubChem BioAssay AID1645882 (National Center for Advancing Translational Sciences (NCATS), 2021).
About 120 (0.75%) of roughly 16,000 compounds were called active. About 4% were inconclusive and are not listed. The call rests on the fitted dose curve; in most records, active means well fitted inhibition curve with a large enough effect; inconclusive means small, poorly fitted or top-dose-only effect; inactive means no such curve, though single readings can be large or run the other way. Some of the results follow. Where a structure was tested more than once in an assay, its records may differ in their call.

Target: Rap guanine nucleotide exchange factor 3 (Homo sapiens) (UniProt O95398)
Assay: Validation qHTS for antagonist of cAMP-regulated guanine nucleotide exchange factor 3 (EPAC1); further: nearly all actives have a fitted effect of over 75% in size;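 on activity change, negative = inhibition: plate controls were DMSO for no effect and ATA control for full effect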
Settings: EPAC1 Rap1B-BODIPY-GDP exchange, fluorescence; series mostly up to 150 µM; activity change, negative = inhibition: at the top concentration
How it was run: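 Nucleotide exchange followed as fluorescence loss when BODIPY-GDP leaves Rap1B (480 nm excitation, 540 nm emission), read at 5 min intervals over 30 min. Reaction: 100 nM EPAC1, 250 nM RAP1B-BODIPY-GDP, 50 uM GDP; ATA and DMSO define normalization.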
Potency means the concentration at half of the fitted maximal effect.

UniProt O95398, sequence (O95398 whole entry, looked up): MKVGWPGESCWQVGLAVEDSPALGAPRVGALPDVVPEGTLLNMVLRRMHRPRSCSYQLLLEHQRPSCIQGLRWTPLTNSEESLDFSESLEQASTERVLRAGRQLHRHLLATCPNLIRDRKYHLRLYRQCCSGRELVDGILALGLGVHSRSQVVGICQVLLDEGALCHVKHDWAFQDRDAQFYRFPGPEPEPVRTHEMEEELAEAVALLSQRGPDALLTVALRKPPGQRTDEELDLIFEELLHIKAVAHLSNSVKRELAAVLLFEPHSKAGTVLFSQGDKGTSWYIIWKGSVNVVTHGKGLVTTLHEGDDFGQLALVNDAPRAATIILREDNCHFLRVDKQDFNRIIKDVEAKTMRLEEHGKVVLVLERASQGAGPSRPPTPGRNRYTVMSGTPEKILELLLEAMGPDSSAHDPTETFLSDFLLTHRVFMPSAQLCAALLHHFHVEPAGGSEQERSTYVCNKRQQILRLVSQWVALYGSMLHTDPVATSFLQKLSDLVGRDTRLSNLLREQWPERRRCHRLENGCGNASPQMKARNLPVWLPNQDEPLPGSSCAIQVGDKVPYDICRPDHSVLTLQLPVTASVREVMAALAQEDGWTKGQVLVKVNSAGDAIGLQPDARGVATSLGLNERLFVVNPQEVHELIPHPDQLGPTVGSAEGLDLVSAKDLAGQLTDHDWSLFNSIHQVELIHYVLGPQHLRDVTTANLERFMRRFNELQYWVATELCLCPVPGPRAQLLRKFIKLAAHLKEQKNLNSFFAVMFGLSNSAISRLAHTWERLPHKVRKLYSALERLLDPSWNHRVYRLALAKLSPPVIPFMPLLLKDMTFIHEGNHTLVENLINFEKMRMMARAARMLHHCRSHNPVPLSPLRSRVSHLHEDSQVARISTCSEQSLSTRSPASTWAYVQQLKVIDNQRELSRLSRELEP

SMILES	activity change, negative = inhibition	Potency
COC(=O)c1ccccc1C(=O)OC	inactive: 24.4%	–
N#Cc1ccc(CN2CC[C@@]3(CCCNC3)C2)cc1	inactive: 3.54%	–
Clc1ccc(C2CC3CCC2N3)cn1 (stereo not drawn)	inactive	–
C[C@]12CCC(=O)C=C1CC[C@@H]1[C@H]3CC[C@](C)(O)[C@@]3(C)CC[C@@H]12	inactive: 19.8% [at 320 µM]	–
C[C@@H]1[C@@H]2Cc3ccc(O)cc3[C@@]1(C)CCN2CC1CC1	inactive: -8.52% [at 75.8 µM]	–
CCN(CC)CCO[C@H]1CC[C@@]2(C)C(=CC[C@@H]3[C@H]2CC[C@]2(C)C(=O)CC[C@H]32)C1	inactive: -12.1%	–
NCC(=O)c1ccc(Br)cc1	inactive: -14.6%	–
Cc1ccc(-c2nc3ccc(C)cn3c2CC(=O)N(C)C)cc1	inactive: 16.5%	–
Nc1nc(N)nc(NC2CC2)n1	inactive: -8.79%	–
CN(C)CCN(C)CCc1ccc(Cl)c(Cl)c1	inactive	–
Nc1ccc(N=Nc2ccccc2)cc1	inactive: 6.31% [at 320 µM]	–
CCC12C=CCN3CCC4(c5ccc(OC)cc5N(C)C4[C@@](O)(C(=O)OC)C1OC(C)=O)C32 (stereo partly drawn)	inactive: 12.6%	–
CN[C@]1(c2ccccc2Cl)CCCCC1=O	inactive: 17.8%	–
C[C@H](N)CN1CCc2ccc(Br)cc21	inactive: 2.88% [at 75.8 µM]	–
CC(=O)C1=C(O)C2C3c4c[nH]c5cccc(c45)CC3C(C)(C)N2C1=O (stereo not drawn)	inactive: 21.7%	–
CN1CCc2cc(Cl)c(O)cc2[C@H]2c3ccccc3CC[C@@H]21	inactive: 15.6%	–
Cc1ccccc1-n1c(C)nc2ccccc2c1=O	inactive	–
C[C@@]12CCC(OS(=O)(=O)O)C[C@@H]1CCC1C2CC[C@]2(C)C(=O)CCC12 (stereo partly drawn)	inactive: 16.8%	–
NCCc1ccc(S(=O)(=O)F)cc1	inactive: -12.2% [at 75.8 µM]	–
C[C@H]1O[C@H](O[C@H]2[C@H](O)[C@@H](O)[C@@H](O)[C@H](O)[C@@H]2O)[C@@H](N)C[C@@H]1NC(=N)C(=O)O	inactive: 18.6%	–
CCCCCCCCCCCCCCCCOC[C@@H](COP(=O)([O-])OCC[N+](C)(C)C)OC(C)=O	inactive: 25% [at 15.3 µM]	–
C/C(O)=C(/C#N)C(=O)Nc1cc(Br)ccc1Br	inactive: -5.83%	–
CCN(CC)CCOC(=O)C(C)(c1ccccc1)c1ccccc1	inactive: 7.07%	–
CNC(=O)O/N=C/C(C)(C)SC	inactive: 16.2%	–
NCC(=O)c1cccc([N+](=O)[O-])c1	inactive: 8.82%	–
O=[N+]([O-])c1cc(O)c(O)c([N+](=O)[O-])c1	–	active: 79.4 µM and inactive

SMILES	activity change, negative = inhibition	Potency
CN[C@@H]1C[C@@H](c2ccc(Cl)c(Cl)c2)c2ccccc21	inactive	–
O=C(O)Cc1cccnc1C(=O)O	inactive	–
C[C@H](N)Cc1cnc[nH]1	inactive	–
CCC1(c2ccccc2)C(=O)NC(=O)N(C)C1=O (stereo not drawn)	inactive: 8.79%	–
CCCC(C)C1(CC)C(=O)N=C(S)NC1=O (stereo not drawn)	inactive	–
Nc1ccccc1C(=O)O	inactive: 10.3%	–
C=CC[C@]1(O)CC[C@H]2[C@@H]3CCC4=CCCC[C@@H]4[C@H]3CC[C@@]21C	inactive: -4.26%	–
CN(C)C1C(=O)C(C(N)=O)=C(O)[C@@]2(O)C(=O)C3=C(O)c4c(O)cccc4[C@@](C)(O)C3[C@H](O)C12 (stereo partly drawn)	inactive: 9.52%	–
CC1CC[C@]2(NC1)OC1CC3C4CC=C5CC(O)CC[C@@]5(C)C4CC[C@]3(C)C1C2C (stereo partly drawn)	inactive: 5.69%	–
c1ccc(CCCCN2CCC(c3ccccc3)CC2)cc1	inactive	–
Cc1cc(O)ccc1Cl	inactive	–
N[C@@H](Cn1ccc(=O)[nH]c1=O)C(=O)O	inactive: 14.8% [at 75.8 µM]	–
CCCN(CCC)c1c([N+](=O)[O-])cc(C(F)(F)F)cc1[N+](=O)[O-]	inactive: 4.81%	–
C=CCN1CCC2(C)c3cc(O)ccc3C[C@H]1[C@H]2C	inactive: 6.25%	–
C=C(C)[C@H]1CN[C@H](C(=O)O)[C@H]1CC(=O)O	inactive	–
c1cnc(N2CC[C@@]3(CCCNC3)C2)nc1	inactive: 15.1%	–
NC1CC1c1ccccc1 (stereo not drawn)	inactive: 2.39% [at 75.8 µM]	–
CCC(C)(S(=O)(=O)CC)S(=O)(=O)CC	inactive: 8.45%	–
O=c1cccc2n1CC1CC2CN2CCCC[C@H]12 (stereo partly drawn)	inactive: 17.6%	–
CC(C)N(C(=O)CCl)c1ccccc1	inactive: 21.4%	–
COc1ccc2c(c1)c(CCN1CCOCC1)c(C)n2C(=O)c1cccc(Cl)c1Cl	inactive: 11.8% [at 75.8 µM]	–
C=CCN1C[C@@H](C)N([C@H](c2ccc(C(=O)N(CC)CC)cc2)c2cccc(OC)c2)C[C@@H]1C	inactive: 10.8% [at 75.8 µM]	–
Oc1ccc2c3c1O[C@H]1c4oc5ccccc5c4C[C@@]4(O)C(C2)N(CC2CC2)CC[C@]314	inactive: 15.3%	–
Nc1ncn[nH]1	inactive: -2.02%	–
COc1ccc(CN2CCNCC2)c(OC)c1OC	inactive: 20.8% [at 75.8 µM]	–
Cc1c(C(=O)c2ccc3ccccc3c2)c2cccc3c2n1[C@H](CN1CCOCC1)CO3	inactive: 1.31%	–

SMILES	activity change, negative = inhibition	Potency
C=CCC1([C@@H](C)CCC)C(=O)NC(=O)NC1=O	inactive: 19.2% [at 320 µM]	–
CC(C)NC[C@H](O)c1ccc(N)c(C#N)c1	inactive: 3.15%	–
CCCN(CCC)CCc1c[nH]c2ccc(C(N)=O)cc12	inactive	–
CCN1C[C@]2(COC(=O)c3ccccc3N3C(=O)CC(C)C3=O)CC[C@H](OC)[C@@]34C5C[C@@H]6[C@@H](OC)C[C@@](O)(C5[C@H]6OC)[C@](O)([C@@H](OC)C23)[C@@H]14 (stereo partly drawn)	inactive: 13.7%	–
CC(C)(N)Cc1ccc(Cl)cc1	inactive: 19.8%	–
CN(C)C1C(=O)C(C(N)=O)=C(O)[C@@]2(O)C(=O)C3=C(O)c4c(O)ccc(Cl)c4[C@](C)(O)C3CC12 (stereo partly drawn)	inactive: -10.7%	–
c1ccc2c(N3CCNCC3)cccc2c1	inactive	–
CCCCNCC(O)c1ccc(O)cc1 (stereo not drawn)	inactive: 6.82%	–
CN(C)CCO	inactive: 25.6%	–
COCCOCCO	inactive: 22.2% [at 320 µM]	–
c1cc(N2CCCC3(CCNCC3)C2)ccn1	inactive: 20.3%	–
COC1=CC2C3Cc4ccc(OC)c(O)c4[C@]2(CCN3C)CC1=O (stereo partly drawn)	inactive: -8.96%	–
CC1O[C@@H](OC2CC(O)[C@@]3(CO)C4C(O)C[C@@]5(C)C(C6=CC(=O)OC6)CC[C@]5(O)C4CC[C@]3(O)C2)C(O)C(O)C1O (stereo partly drawn)	inactive: 7.17%	–
CCCCC[C@@H](/C=C/C=C\CCCCCCCC(=O)O)OO	inactive: 13.2% [at 1.57 µM]	–
CN1Cc2ccccc2[C@@H]2c3cccc4[nH]cc(c34)C[C@H]21	inactive	–
C=C[C@H]1CN2CC[C@H]1C[C@H]2[C@H](OC(=O)OCC)c1ccnc2ccc(OC)cc12	inactive: 12.7%	–
O=C(N[C@H]1CN2CCC1CC2)c1ccc(Cl)cc1	inactive: -5.7% [at 75.8 µM]	–
O=[N+]([O-])c1ccc2nc(N3CCNCC3)ccc2c1	inactive	–
N[C@@]1(C(=O)O)CC[C@H](C(=O)O)C1	inactive	–
C[C@H]1C[C@H](C)C(=O)[C@@H]([C@H](O)CC2CC(=O)NC(=O)C2)C1	inactive: -7.98%	–
C[N+]1=Cc2cc3c(cc2CC1)OCO3	inactive: 10.5%	–
C[C@]12C=CC(=O)C=C1CC[C@@H]1[C@@H]2CC[C@@]2(C)[C@H]1CC[C@]2(C)O	inactive: 30.4%	–
CN(C)C1C(=O)C(C(N)=O)=C(O)[C@@]2(O)C(=O)C3=C(O)c4c(O)cccc4[C@@](C)(O)C3C[C@@H]12 (stereo partly drawn)	inactive: -1.22%	–
c1csc(CN2CCC3(CCNCC3)CC2)n1	inactive: -1.81%	–
CN1CCC2=C[C@@H](O)[C@@H]3OC(=O)c4cc5c(cc4C3C21)OCO5 (stereo partly drawn)	inactive: -4.19%	–
C[C@]12CC[C@H]3[C@@H](CCC4=CC(=O)CC[C@@H]43)[C@@H]1CC[C@@H]2O	inactive	–
